Test results as given in the supplement of paper PMC9151546.
Many values rest on one well or one pass, so single values are uncertain.

How the values were obtained:
CHO-K1 [1] = test: hypodiploid nuclei frequency (% of nucleated events); higher = more hypodiploid events (aneugenic)
Method: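 Flow-cytometric in vitro micronucleus assay (Litron MicroFlow) in CHO-K1 cells in 96-well plates, 19 concentrations (4.5-200 µM, n=1 per concentration). Without S9, cells were exposed for 24 h and sampled at 48 h. With Aroclor 1254-induced rat liver S9, cells were exposed for 3-4 h and sampled at 27-28 h. Read-outs are %MN and %hypodiploid nuclei relative to nucleated events, and relative survival as the nuclei-to-bead ratio versus the 1% DMSO vehicle control (x100).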

CHO-K1 [2] = test: micronucleus frequency (% of nucleated events); higher = more micronuclei (genotoxic)
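Wherever hypodiploid nuclei frequency (% of nucleated events) is given: hypodiploid nuclei gated on a flow cytometer with 488 nm excitation after SYTOX Green staining, cultures at 37 °C, positive controls vinblastine without S9 and cyclophosphamide with S9.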
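Wherever micronucleus frequency (% of nucleated events) is given: cells lysed with nuclei stained by SYTOX Green, then micronucleus-gated events counted against nucleated events by flow cytometry with 488 nm excitation.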

CC(=O)Nc1ccc(O)cc1 [Acetaminophen]
Details	hypodiploid nuclei frequency, CHO-K1 [1] [%]	micronucleus frequency, CHO-K1 [2] [%]
concentration: 4.5 (µM), S9 metabolic activation: with S9, exposure time: 3-4 hours	0.28	2.04
concentration: 4.5 (µM), S9 metabolic activation: without S9, exposure time: 24 hours	0.42	1.38
concentration: 5.63 (µM), S9 metabolic activation: with S9, exposure time: 3-4 hours	0.22	1.42
concentration: 5.63 (µM), S9 metabolic activation: without S9, exposure time: 24 hours	0.44	1.68
concentration: 7.04 (µM), S9 metabolic activation: with S9, exposure time: 3-4 hours	0.34	2.64
concentration: 7.04 (µM), S9 metabolic activation: without S9, exposure time: 24 hours	0.42	1.64
concentration: 8.8 (µM), S9 metabolic activation: with S9, exposure time: 3-4 hours	0.12	2.24
concentration: 8.8 (µM), S9 metabolic activation: without S9, exposure time: 24 hours	0.6	1.46
concentration: 11 (µM), S9 metabolic activation: with S9, exposure time: 3-4 hours	0.26	2.08
concentration: 11 (µM), S9 metabolic activation: without S9, exposure time: 24 hours	0.56	1.78
concentration: 13.7 (µM), S9 metabolic activation: with S9, exposure time: 3-4 hours	0.3	2.56
concentration: 13.7 (µM), S9 metabolic activation: without S9, exposure time: 24 hours	0.72	2.28
concentration: 17.2 (µM), S9 metabolic activation: with S9, exposure time: 3-4 hours	0.32	2.44
concentration: 17.2 (µM), S9 metabolic activation: without S9, exposure time: 24 hours	0.76	2.4
concentration: 21.5 (µM), S9 metabolic activation: with S9, exposure time: 3-4 hours	0.3	1.12
concentration: 21.5 (µM), S9 metabolic activation: without S9, exposure time: 24 hours	0.68	1.84
concentration: 26.8 (µM), S9 metabolic activation: with S9, exposure time: 3-4 hours	0.34	2.02
concentration: 26.8 (µM), S9 metabolic activation: without S9, exposure time: 24 hours	0.48	1.8
concentration: 33.6 (µM), S9 metabolic activation: with S9, exposure time: 3-4 hours	0.22	1.78
concentration: 33.6 (µM), S9 metabolic activation: without S9, exposure time: 24 hours	0.76	2.3
concentration: 41.9 (µM), S9 metabolic activation: with S9, exposure time: 3-4 hours	0.42	1.82
concentration: 41.9 (µM), S9 metabolic activation: without S9, exposure time: 24 hours	0.66	1.6
concentration: 52.4 (µM), S9 metabolic activation: with S9, exposure time: 3-4 hours	0.16	1.46
concentration: 52.4 (µM), S9 metabolic activation: without S9, exposure time: 24 hours	0.88	2.02
concentration: 65.5 (µM), S9 metabolic activation: with S9, exposure time: 3-4 hours	0.3	1.14
concentration: 65.5 (µM), S9 metabolic activation: without S9, exposure time: 24 hours	0.68	1.9
concentration: 81.9 (µM), S9 metabolic activation: with S9, exposure time: 3-4 hours	0.26	1.18
concentration: 81.9 (µM), S9 metabolic activation: without S9, exposure time: 24 hours	0.94	1.9
concentration: 102 (µM), S9 metabolic activation: with S9, exposure time: 3-4 hours	0.22	1.8
concentration: 102 (µM), S9 metabolic activation: without S9, exposure time: 24 hours	0.82	2.5
concentration: 128 (µM), S9 metabolic activation: with S9, exposure time: 3-4 hours	0.32	1.58
concentration: 128 (µM), S9 metabolic activation: without S9, exposure time: 24 hours	1	2.1
concentration: 160 (µM), S9 metabolic activation: with S9, exposure time: 3-4 hours	0.26	1.7
concentration: 160 (µM), S9 metabolic activation: without S9, exposure time: 24 hours	1.12	2.86
concentration: 200 (µM), S9 metabolic activation: with S9, exposure time: 3-4 hours	0.24	1.52
concentration: 200 (µM), S9 metabolic activation: without S9, exposure time: 24 hours	1.2	3.92
